The target of the assay is Protein disulfide-isomerase (Homo sapiens) (UniProt P07237). The assay is described as follows: inhibition of PDI-mediated insulin reduction – biochemical, turbidity, absorbance, cherry-picked samples, set 2, dose response (AID 624274). Conditions: absorbance 650 nm.

Not every entry of the source has a single result; some have several. The list is limited to them. The source may hold further records. The records of an entry are repeated measurements (runs, samples, wells, individuals or studies). A tag in brackets gives the origin of a value. Letters hold for one entry only.

UniProt P07237, sequence (P07237 whole entry, looked up): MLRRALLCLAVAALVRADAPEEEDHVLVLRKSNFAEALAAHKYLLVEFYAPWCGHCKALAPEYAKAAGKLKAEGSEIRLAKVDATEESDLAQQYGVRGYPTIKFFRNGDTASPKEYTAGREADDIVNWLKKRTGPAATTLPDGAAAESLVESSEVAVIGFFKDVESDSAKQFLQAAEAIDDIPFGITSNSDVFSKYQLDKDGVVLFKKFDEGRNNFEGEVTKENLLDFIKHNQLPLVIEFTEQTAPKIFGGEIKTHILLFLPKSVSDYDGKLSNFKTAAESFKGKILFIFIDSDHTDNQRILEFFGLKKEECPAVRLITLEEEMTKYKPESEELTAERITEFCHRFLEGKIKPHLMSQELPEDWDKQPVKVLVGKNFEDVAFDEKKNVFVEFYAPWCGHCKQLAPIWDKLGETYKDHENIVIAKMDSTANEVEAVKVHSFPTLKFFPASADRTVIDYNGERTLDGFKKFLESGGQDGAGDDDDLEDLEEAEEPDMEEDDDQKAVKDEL

As for `C[C@@H]1CN([C@H](C)CO)C(=O)c2cc(NC(=O)Cc3cn(C)c4ccccc34)ccc2O[C@H]1CN(C)S(=O)(=O)c1ccc(F)cc1`, the AC50 is 16.4 µM [sample A] and 1.26 µM [sample B].

These data come from PubChem BioAssay AID624274 (Broad Institute, 2012).
